Reference: the supplement of paper PMC3334620
The full ranking holds about 33,000 sequences; the median of “E-score (-0.5 to 0.5)” is about -0.056, and the highest 2% start at about 0.38. This is one part of the list.

biological target: Stb4 (UniProt P50104); experiment: PBM E-score (8-mer binding enrichment) (E-score (-0.5 to 0.5)); higher = stronger / more preferred TF binding; most listed sequences are background and not binding sites; conditions: protein concentration: 200 nM; construct: GST-DNA-binding domain
How it was run: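 The E-score, a modified Wilcoxon-Mann-Whitney statistic, was computed by the Universal PBM Analysis Suite for every ungapped eight-base word pooled with its reverse complement. Scans behind it were normalised with masliner after bound GST-tagged yeast transcription factors were detected with fluorescent anti-GST. The proteins, at about 100-200 nM, had been applied to universal all-10-mer Agilent arrays made double-stranded by primer extension.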

Sequence | PBM E-score
AGAGAAAT | -0.0233
AAACGTGG | -0.162
GAGGTGCA | -0.0012
CGACTATA | -0.0289
AGCCCTAA | -0.00381
ACACACGA | -0.175
CTATCCAC | -0.0315
ACTGGATC | 0.0403
ATACTGCA | 0.225
CAGATCAG | -0.088
CGCCACTC | -0.00773
ATCGGCCC | 0.269
AAACAGAA | -0.265
CCTCACTA | -0.181
TATTAGGA | -0.129
CTTCCAGA | -0.109
CGGCGTAA | 0.083
CTCATACA | -0.00666
AATTCCAA | -0.07
GCTCCTAA | -0.13
AGGATCCC | 0.0362
GGTCAAAC | 0.053

Sequence | PBM E-score
CCCTCGCA | -0.0413
GTCGGAAC | 0.454
GCTCAGAA | -0.0152
GCAACTGA | -0.0798
GGGATAAA | 0.105
ACACGCAG | -0.0986
ACTTTAAG | -0.105
CCTTTTGC | -0.151
GCATCCGC | 0.295
ACGCCTGC | -0.193
CGACCTTC | 0.169
AGGCCTTC | -0.0423
ACCTGAGT | -0.119
AGATACAG | -0.101
ACTGGCAG | 0.00127
GATCTCGA | 0.0551
GCATGTGA | -0.0762
GTCGCATA | -0.0784
GACATGCA | -0.109
ATGGGTCG | 0.2
CGACAGCA | -0.0338
AACTGACG | -0.175

Sequence | PBM E-score
CCGTTCGC | 0.0505
ACACCCTA | -0.164
AAGCAACC | -0.124
CCGCAGCC | 0.101
AGTTGAAG | -0.00772
CACATAAC | -0.231
GGTTACTA | 0.192
AACACATC | -0.0115
AGAGCGCT | -0.266
ATCCGACG | 0.452
GGACGGTA | 0.184
AGGACGAT | -0.16
CGCGCATA | -0.0424
AGGAACCG | 0.263
CACGCGAC | -0.062
ATCGGAAT | 0.434
GCCTGTCA | -0.247
CCTCTGGA | 0.0124
ACATAAGG | 0.119
ACCTTACA | -0.182
CCGCACGC | -0.0725
CCCTTGTC | -0.0245

Sequence | PBM E-score
ATAGTGCC | 0.00846
GGAGATAA | 0.116
CCTTTAAA | -0.13
ACGTAAAA | -0.0542
GCGACGAA | -0.14
AAGCAATG | 0.0123
TAAGGCTA | -0.188
AAGAGATT | 0.0547
CACTAATG | -0.0592
ACCAGTCT | -0.193
ACTCCCCC | -0.0781
ACTTGAAC | -0.0299
AAGTATAC | -0.14
GTGACGCA | -0.123
ACGTCTGG | -0.182
ACCGGTTG | 0.168
CGTCTCTC | 0.0264
ACTCTTCA | -0.226
GTCGAATA | -0.181
CATAATGG | -0.0604
